3 substances from PMC12489035 can be followed below.

Amino acid sequences for entries named in this document (tags omitted).
UniProt P49757: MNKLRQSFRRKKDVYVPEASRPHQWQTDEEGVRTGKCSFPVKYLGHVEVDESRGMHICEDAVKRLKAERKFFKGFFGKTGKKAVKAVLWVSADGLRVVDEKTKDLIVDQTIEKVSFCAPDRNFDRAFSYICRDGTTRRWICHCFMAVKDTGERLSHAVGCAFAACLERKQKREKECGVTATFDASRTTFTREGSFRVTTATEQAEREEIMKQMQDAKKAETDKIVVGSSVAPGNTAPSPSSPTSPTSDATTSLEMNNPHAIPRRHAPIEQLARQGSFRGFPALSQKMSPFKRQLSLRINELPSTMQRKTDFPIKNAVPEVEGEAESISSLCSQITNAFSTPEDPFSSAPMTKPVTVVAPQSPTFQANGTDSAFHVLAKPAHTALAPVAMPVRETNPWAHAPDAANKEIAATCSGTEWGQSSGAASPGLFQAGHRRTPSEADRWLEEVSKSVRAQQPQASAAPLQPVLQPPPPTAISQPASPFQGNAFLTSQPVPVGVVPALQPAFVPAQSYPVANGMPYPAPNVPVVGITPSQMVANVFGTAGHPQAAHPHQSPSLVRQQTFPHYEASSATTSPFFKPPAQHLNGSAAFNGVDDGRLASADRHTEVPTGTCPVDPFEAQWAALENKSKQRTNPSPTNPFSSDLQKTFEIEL
UniProt Q9NR12: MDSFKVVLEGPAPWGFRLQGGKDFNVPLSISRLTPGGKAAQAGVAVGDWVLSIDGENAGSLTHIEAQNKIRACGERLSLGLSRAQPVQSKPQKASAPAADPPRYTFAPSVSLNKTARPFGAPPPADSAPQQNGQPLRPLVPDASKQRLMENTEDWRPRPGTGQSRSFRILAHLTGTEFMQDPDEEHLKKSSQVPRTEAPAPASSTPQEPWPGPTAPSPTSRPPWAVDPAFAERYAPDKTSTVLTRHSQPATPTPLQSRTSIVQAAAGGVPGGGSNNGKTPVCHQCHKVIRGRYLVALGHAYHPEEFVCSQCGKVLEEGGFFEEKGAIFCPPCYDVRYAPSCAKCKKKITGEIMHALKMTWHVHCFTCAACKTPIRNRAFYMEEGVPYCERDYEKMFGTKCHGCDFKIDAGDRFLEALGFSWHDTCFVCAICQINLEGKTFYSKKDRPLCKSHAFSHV
UniProt Q9Y3P9: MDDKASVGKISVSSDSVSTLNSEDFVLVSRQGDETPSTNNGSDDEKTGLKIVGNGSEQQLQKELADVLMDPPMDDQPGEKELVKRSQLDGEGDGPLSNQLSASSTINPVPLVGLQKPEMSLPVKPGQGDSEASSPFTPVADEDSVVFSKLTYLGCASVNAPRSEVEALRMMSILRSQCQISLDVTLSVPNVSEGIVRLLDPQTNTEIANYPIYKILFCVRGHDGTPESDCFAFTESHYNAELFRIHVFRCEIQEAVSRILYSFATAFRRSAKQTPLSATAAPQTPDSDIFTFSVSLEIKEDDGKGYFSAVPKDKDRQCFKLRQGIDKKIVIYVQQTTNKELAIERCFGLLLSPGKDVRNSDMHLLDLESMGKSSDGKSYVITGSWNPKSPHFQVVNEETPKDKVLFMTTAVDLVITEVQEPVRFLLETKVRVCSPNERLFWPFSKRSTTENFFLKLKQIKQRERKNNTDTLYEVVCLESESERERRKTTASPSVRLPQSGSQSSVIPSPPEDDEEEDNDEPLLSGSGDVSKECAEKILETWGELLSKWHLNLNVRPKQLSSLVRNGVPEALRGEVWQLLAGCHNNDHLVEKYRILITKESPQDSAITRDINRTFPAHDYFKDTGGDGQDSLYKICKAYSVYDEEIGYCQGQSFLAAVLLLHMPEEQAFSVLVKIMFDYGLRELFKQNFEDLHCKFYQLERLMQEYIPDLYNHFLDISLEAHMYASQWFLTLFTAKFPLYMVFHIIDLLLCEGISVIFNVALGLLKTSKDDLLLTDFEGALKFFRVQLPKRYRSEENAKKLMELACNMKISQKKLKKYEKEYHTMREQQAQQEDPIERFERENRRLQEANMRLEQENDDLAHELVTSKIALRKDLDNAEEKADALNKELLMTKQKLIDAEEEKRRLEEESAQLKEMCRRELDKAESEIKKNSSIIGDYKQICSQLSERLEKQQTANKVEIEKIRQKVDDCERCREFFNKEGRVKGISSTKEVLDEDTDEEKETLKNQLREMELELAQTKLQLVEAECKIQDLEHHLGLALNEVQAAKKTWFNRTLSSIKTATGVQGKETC

Common to all, as to test: pull-down; GST-APP tail WT, tail mutants or GST only on glutathione-Sepharose beads, incubated overnight at 4 °C with pre-cleared HEK293T lysate; eluted with […] NaCl; eluates immunoblotted for the hits; N = 3; only the target purified
The target of test [1] is GST fused to the APP cytosolic tail mutant N684A (UniProt P05067).
The target of test [2] is GST fused to the APP cytosolic tail mutant Y682A (UniProt P05067).
For test [3], the target named is GST fused to the WT cytosolic tail of APP (649-695) (UniProt P05067).
Test [4] concerns the target GST fused to the APP cytosolic tail mutant Y687A (UniProt P05067).
Test [5] deals with GST fused to the APP cytosolic tail mutant D664A (UniProt P05067).
Test [6] addresses GST fused to the APP cytosolic tail mutant FFE689-91AAA (UniProt P05067).

No constants are given. Whether binding was seen depends on the method and setting. In cells and extracts the contact can be indirect. Some entries that bind do so weakly or less than the wild type.

Turning to NUMB (from UniProt P49757 1-651), the binding entry is given as “no binding” in test [1]; “no binding” in test [2]; “binds” in test [3]; “no binding” in test [4]; “no binding” in test [5].

With PDLIM7 (from UniProt Q9NR12 1-457), the binding result in test [1], in test [2], in test [6], in test [3], in test [4] and in test [5] was “binds” in each case.

On to RABGAP1 (from UniProt Q9Y3P9 1-1069), for which the binding result in test [1] is “no binding”; in test [2], “no binding”; in test [3], “binds”; in test [4] it was “no binding”.
